From PMC9345960, “ERK1/2 inhibits Cullin 3/SPOP-mediated PrLZ ubiquitination and degradation to modulate prostate cancer progression” (Cell Death and Differentiation, 2022)
No constants are given. Whether binding was seen depends on the method and setting. In cells and extracts the contact can be indirect. Some entries that bind do so weakly or less than the wild type. Tags and fused reporters may be left off the sequences shown.

Amino acid sequences for entries named in this document (tags omitted). A change or cut given only in a name is not applied to a line headed by its entry.
UniProt Q93034: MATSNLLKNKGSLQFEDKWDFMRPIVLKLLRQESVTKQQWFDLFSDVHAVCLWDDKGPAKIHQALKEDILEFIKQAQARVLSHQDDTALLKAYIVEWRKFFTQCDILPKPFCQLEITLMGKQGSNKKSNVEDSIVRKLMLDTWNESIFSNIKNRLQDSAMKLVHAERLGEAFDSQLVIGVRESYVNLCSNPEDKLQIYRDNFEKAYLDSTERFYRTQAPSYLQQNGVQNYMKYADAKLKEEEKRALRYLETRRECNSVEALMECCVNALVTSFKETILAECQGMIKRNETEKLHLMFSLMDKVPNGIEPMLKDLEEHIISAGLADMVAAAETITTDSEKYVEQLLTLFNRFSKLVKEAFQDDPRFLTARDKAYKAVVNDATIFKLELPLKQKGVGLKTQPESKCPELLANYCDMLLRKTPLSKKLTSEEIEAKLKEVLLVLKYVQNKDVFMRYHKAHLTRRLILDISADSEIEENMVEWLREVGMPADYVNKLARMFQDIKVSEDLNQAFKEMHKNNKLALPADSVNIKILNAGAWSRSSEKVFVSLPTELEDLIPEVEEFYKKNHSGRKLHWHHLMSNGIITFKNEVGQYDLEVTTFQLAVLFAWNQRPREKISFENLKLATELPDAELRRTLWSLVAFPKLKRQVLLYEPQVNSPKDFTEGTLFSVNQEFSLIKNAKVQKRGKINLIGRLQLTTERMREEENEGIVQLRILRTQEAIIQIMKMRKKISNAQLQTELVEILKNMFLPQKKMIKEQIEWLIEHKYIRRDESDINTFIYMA
UniProt Q13617: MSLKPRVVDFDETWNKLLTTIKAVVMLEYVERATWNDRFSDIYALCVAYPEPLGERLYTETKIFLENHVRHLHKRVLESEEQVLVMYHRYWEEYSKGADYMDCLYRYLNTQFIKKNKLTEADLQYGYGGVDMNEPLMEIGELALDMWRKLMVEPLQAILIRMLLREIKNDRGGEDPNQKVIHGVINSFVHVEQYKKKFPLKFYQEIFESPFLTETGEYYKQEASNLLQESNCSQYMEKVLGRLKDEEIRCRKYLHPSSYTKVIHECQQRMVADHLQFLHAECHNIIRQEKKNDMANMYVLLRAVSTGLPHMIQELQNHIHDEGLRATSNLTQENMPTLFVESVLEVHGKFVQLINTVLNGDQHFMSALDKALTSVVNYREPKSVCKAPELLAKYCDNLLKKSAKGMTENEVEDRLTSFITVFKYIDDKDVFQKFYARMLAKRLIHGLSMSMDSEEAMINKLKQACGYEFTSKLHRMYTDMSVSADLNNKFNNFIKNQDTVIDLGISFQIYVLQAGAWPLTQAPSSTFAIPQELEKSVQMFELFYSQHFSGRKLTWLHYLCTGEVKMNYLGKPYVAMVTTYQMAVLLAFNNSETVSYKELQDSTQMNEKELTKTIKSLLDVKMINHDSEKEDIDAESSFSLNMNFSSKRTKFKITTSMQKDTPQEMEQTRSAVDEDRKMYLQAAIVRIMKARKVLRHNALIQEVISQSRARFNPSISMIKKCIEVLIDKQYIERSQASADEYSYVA
UniProt Q13619: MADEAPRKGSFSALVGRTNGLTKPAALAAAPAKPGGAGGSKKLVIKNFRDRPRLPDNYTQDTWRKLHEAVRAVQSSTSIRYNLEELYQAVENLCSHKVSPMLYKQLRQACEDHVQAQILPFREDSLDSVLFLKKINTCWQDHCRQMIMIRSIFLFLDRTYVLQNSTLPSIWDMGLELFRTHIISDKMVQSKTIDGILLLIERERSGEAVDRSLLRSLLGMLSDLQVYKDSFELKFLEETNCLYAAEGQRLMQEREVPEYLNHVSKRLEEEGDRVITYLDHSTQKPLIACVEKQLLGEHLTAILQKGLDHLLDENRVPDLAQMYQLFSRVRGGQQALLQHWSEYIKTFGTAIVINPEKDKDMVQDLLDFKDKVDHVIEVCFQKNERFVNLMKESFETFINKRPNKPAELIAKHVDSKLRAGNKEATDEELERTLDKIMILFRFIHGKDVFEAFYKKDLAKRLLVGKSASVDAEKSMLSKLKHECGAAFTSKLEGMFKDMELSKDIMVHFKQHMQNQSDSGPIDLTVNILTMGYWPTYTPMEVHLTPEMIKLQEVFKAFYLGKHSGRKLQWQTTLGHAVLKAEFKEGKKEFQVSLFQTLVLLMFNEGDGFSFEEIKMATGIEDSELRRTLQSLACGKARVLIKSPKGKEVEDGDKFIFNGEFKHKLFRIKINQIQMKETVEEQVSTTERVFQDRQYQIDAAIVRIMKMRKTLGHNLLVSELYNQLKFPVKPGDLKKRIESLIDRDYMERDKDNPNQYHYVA
UniProt Q13620: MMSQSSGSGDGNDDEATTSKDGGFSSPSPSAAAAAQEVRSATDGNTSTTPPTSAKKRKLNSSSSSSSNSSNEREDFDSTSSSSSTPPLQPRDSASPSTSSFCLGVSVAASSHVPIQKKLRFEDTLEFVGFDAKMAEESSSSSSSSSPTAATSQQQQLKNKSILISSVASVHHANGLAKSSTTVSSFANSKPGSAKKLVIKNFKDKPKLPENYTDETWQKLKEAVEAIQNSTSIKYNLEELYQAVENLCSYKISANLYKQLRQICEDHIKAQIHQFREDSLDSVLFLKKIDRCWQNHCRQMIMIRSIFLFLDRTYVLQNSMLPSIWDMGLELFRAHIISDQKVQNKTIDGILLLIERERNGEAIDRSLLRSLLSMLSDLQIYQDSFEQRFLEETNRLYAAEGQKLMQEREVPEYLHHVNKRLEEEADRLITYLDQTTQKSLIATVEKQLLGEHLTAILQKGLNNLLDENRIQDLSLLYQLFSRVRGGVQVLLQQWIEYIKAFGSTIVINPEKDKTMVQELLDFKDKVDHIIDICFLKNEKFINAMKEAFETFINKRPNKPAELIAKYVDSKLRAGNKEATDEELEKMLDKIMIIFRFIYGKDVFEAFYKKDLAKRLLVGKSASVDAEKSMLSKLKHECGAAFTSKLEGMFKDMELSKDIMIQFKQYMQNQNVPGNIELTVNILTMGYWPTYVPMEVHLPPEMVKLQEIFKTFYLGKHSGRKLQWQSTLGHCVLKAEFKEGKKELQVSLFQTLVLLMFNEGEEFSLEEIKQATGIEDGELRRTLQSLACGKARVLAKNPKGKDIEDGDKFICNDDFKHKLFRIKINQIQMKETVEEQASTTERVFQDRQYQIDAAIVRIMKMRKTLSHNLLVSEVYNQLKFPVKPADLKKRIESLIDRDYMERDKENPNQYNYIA
UniProt Q13616: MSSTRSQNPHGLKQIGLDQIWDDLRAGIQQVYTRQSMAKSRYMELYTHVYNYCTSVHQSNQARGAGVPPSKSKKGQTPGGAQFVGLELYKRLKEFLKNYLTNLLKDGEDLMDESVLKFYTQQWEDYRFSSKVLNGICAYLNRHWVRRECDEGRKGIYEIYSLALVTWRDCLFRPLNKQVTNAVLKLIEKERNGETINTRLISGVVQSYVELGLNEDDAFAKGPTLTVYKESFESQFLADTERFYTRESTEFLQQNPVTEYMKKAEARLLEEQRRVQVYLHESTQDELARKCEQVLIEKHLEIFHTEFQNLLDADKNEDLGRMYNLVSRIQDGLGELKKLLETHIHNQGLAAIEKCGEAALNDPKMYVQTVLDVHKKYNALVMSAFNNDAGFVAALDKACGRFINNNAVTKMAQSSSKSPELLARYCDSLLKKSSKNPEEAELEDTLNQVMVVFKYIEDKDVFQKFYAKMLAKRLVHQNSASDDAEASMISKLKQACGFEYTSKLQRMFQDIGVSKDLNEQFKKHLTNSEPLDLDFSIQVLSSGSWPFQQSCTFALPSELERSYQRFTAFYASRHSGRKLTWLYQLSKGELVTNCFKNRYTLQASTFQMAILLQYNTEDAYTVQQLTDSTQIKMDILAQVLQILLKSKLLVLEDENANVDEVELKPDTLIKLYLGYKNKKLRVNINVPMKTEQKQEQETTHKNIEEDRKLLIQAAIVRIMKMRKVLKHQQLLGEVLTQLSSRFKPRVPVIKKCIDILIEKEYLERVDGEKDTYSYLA
UniProt P28482: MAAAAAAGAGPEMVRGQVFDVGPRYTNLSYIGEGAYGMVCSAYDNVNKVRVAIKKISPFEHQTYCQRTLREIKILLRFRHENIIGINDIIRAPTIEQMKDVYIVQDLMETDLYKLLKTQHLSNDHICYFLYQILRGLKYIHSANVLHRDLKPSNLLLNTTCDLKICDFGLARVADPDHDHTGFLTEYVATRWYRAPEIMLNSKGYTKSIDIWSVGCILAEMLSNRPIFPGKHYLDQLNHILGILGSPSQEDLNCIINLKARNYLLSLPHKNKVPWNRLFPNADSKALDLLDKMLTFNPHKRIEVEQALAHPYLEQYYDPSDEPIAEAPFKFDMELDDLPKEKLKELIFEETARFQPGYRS
UniProt O43791: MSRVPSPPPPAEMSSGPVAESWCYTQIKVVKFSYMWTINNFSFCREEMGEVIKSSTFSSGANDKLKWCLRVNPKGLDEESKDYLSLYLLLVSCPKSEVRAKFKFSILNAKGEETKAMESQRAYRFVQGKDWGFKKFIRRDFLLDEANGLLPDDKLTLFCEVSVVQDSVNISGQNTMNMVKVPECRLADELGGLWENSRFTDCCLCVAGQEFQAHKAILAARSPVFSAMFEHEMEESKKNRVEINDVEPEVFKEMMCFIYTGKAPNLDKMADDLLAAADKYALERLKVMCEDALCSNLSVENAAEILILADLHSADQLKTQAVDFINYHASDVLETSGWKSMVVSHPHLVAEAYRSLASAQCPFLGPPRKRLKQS
UniProt P27361: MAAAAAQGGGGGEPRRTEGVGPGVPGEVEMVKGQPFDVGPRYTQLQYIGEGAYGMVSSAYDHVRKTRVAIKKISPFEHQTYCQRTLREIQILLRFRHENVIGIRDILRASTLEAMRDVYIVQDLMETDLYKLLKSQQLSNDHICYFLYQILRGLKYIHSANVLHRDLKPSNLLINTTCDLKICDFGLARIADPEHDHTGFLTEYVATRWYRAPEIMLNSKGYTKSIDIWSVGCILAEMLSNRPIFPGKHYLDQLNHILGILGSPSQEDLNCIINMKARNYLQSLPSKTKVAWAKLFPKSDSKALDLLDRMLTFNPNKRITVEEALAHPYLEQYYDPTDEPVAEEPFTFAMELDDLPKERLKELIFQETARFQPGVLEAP

Columns and labels:
Myc-Cullin 5 = Myc-Cullin 5 (UniProt Q93034); assay: co-IP; anti-Myc IP from 293T cells transfected with Flag-PrLZ and Myc-tagged Cullins (Fig. 1c)
Myc-Cullin 2 = Myc-Cullin 2 (UniProt Q13617); assay: as above
Myc-Cullin 4A = Myc-Cullin 4A (UniProt Q13619); assay: as above
Myc-Cullin 4B = Myc-Cullin 4B (UniProt Q13620); assay: as above
Myc-Cullin 1 = Myc-Cullin 1 (UniProt Q13616); assay: as above
HA-ERK2 = HA-ERK2 (UniProt P28482); assay: co-IP; anti-HA agarose IP (4 h, 4 °C, EBC lysis buffer) from transfected 293T cells: HA-PrLZ with Flag-tagged BTB proteins (Fig. 2a), HA-SPOP WT or mutants with Flag-PrLZ (Fig. 3d), HA-ERK1 or HA-ERK2 with Flag-PrLZ (Fig. 5e); in some panels 20 μM MG132 for 6 h
HA-SPOP F102C = HA-SPOP F102C (UniProt O43791); assay: as above
HA-SPOP W131G = HA-SPOP W131G (UniProt O43791); assay: as above
HA-ERK1 = HA-ERK1 (UniProt P27361); assay: as above
HA-SPOP Y87C = HA-SPOP Y87C (UniProt O43791); assay: as above

- binding (Myc-Cullin 5): no binding
- binding (Myc-Cullin 2): no binding
- binding (Myc-Cullin 4A): no binding
- binding (Myc-Cullin 4B): no binding
- binding (Myc-Cullin 1): binds
- binding (HA-ERK2): binds
- binding (HA-SPOP F102C): no binding
- binding (HA-SPOP W131G): no binding
- binding (HA-ERK1): binds
- binding (HA-SPOP Y87C): no binding
B1: Flag-PrLZ (Prostate Leucine Zipper), wild type (protein, UniProt P55327 1-224)
chain: MDCREMDLYEDYQSPFDFDAGVNKSYLYLSPSGNSSPPGSPTLQKFGLLRTDPVPEEGEDVAATISATETLSEEEQEELRRELAKVEEEIQTLSQVLAAKEKHLAEIKRKLGINSLQELKQNIAKGWQDVTATSAYKKTSETLSQAGQKASAAFSSVGSVITKKLEDVKNSPTFKSFEEKVENLKSKVGGTKPAGGDFGEVLNSAANASATTTEPLPEKTQESL
